# Measured values published in PubChem BioAssay AID1347417 (National Center for Advancing Translational Sciences (NCATS), 2020).
# Hit rate of the full screen: of about 120,000 compounds, about 5,300 (4.4%) were called active. The inconclusive results got no clear call from the source; some entries with a clear call stand among them for comparison. Calls come from the whole dose curve; as a rule, active = well fitted inhibition curve with a large enough effect; inconclusive = small, poorly fitted or top-dose-only effect; inactive = no such curve, though single readings can be large or run the other way. A potency beside an inconclusive call is a rough fit, not a confirmed value.
# Assay: qHTS Primary assay for Inhibitors of Plasmodium falciparum Dd2 growth in vitro; note: nearly all actives have a fitted effect of over 65% in size;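 for activity, negative = inhibition: plate controls were DMSO vehicle for no effect and reference drug for full effect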
# Details: P. falciparum Dd2 growth, SYBR Green, 72 h; activity, negative = inhibition: at 28.9 µM (top of the series) unless noted; series mostly up to 28.9 µM
# Outline: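 Infected erythrocytes (Dd2, 0.3% parasitemia, 2.5% hematocrit final) are added to compound in RPMI-1640/Albumax II medium, grown 72 h at 37C in low oxygen, then lysed with saponin/Triton-X containing SYBR Green and read by fluorescence.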
# Potency is the fitted concentration of half-maximal effect; tags give direction and shape of the fitted curve.
SMILES,"activity, negative = inhibition",Potency,outcome
COC[C@@H]1CN(S(=O)(=O)c2cccc(F)c2)C[C@H]1c1ccccn1,inactive: -5.98%,–,–
Cc1ccccc1N(C)C1CN([S+](=O)([O-])c2ccccc2)C1,–,"inconclusive: 10 µM [inhibitor, partial curve]",–
Cc1noc(-c2ccn3c(CNC(=O)c4ccccc4Cl)nnc3c2)n1,–,active: 0.282 µM,–
O=C(C1CCC(CNS(=O)(=O)c2cccs2)CC1)N1CCN(c2ccc(Cl)cc2)CC1 (centres undefined),–,active: 12.6 µM,–
CN(C)c1nc(-c2ccncc2)nc2c1CCN(C(=O)c1ccc(O)cc1)C2,inactive: -2.32%,–,–
COCCCN1C(=O)c2[nH]nc(-c3ccccc3O)c2C1c1ccc(OC)cc1 (centres undefined),–,"inconclusive: 14.1 µM [inhibitor, partial curve, poor fit]",–
O=C(Cc1c(F)cccc1Cl)N1CCc2n[nH]c(=O)n2CC1,inactive: 31.9%,–,–
Cc1ccccc1-c1cn(C)c(=O)n2cc(COc3ccc(Cl)cc3)nc12,–,"inconclusive: 7.94 µM [inhibitor, partial curve, poor fit]",–
O=C(Nc1ccccc1)C1=NO[C@@H]2CN(Cc3ccccn3)C[C@H]12,inactive: -15.5% [at 44.1 µM],–,–
Cc1cccc(Cn2c(SCc3ccc(C(=O)NCc4cccs4)cc3)nc3cccnc32)c1,–,"inconclusive: 8.91 µM [inhibitor, single point]",–
COc1ccc(NC(=O)C(=O)c2cc(C)n(-c3ccc(C)cc3)c2C)cc1Cl,–,"inconclusive: 20 µM [inhibitor, single point]",–
O=C(NCCC1=CCCCC1)c1cn(CCCc2ccccc2)nn1,inactive: -10.1%,–,–
CCOc1ccc(CCNC(=O)Cn2ccc3cc(S(=O)(=O)N4CCCCCC4)ccc32)cc1,–,"inconclusive: 17.8 µM [inhibitor, partial curve, poor fit]",–
CCC1CN(C(=O)C2CCN(S(=O)(=O)c3c(C)noc3/C=C/c3ccc(C)cc3)CC2)c2cc(C)ccc2O1 (centres undefined),–,"inconclusive: 17.8 µM [inhibitor, single point]",–
O=C(NC1CCN(C(=O)N2CC3CC(C2)[C@H]2CCCC(=O)N2C3)CC1)c1ccoc1 (some centres undefined),–,–,inactive
COc1ccccc1-c1ccc2ncn(-c3ccc(F)cc3F)c(=O)c2n1,–,"inconclusive: 31.6 µM [inhibitor, single point]",–
O=C(c1ccc(Cl)nc1)N1CCC2(CC1)CC(Cc1ccccc1)=NO2,inactive: -9.89%,–,–
Cc1ccc(S(=O)(=O)N2CCC(c3nnc(-c4cccc(C)c4)o3)CC2)cc1,–,"inconclusive: 12.6 µM [inhibitor, single point]",–
COc1ccccc1-c1nc(-c2c(C)noc2C)cc2cc(CN(C)C)oc12,–,"inconclusive: 5.62 µM [inhibitor, single point]",–
COc1ccc(CN2CCCC(c3cc(=O)[nH]c(C)n3)C2)c(OC)c1C (centres undefined),–,"inconclusive: 17.8 µM [inhibitor, single point]",–
CCOC(=O)C1(Cc2cccc(OC)c2)CCNCC1,–,active: 5.01 µM,–
Cn1nnnc1SCCCNCc1ccc(-c2cccc(Cl)c2)o1,–,"inconclusive: 11.2 µM [inhibitor, single point]",–

SMILES,"activity, negative = inhibition",Potency,outcome
Brc1ccc(-c2nc(N3CCN(c4ccccc4)CC3)c3ccccc3n2)cc1,inactive: -5.28%,–,–
CCOc1ccc2nc(N3CCN(C(=O)C(C)C)CC3)sc2c1,–,"inconclusive: 0.0794 µM [inhibitor, full curve, poor fit]",–
CN1C(=O)CC(C(=O)O)C12CCN(C(=O)Cc1cccc(F)c1)CC2 (centres undefined),inactive: -1.08%,–,–
CCCN(CC1CCOC1)C(=O)Nc1ccc(F)cc1 (centres undefined),inactive: 11.1% [at 5.79 µM],–,–
Cc1ccc(CNC(=O)NCC23CCC=C2N(C)C(=O)CC3)cc1 (centres undefined),inactive: -1.76%,–,–
Cc1ccccc1C(=O)N(C)C(C)c1cccs1 (centres undefined),–,–,inactive [at 44.1 µM]
COCCOc1ccc2c(n1)CCN(C(=O)c1cccc(C)c1)C2,inactive: -34.9%,–,–
O=C(N[C@H](c1ccccn1)C1CC(O)C1)C1(c2ccc(Cl)cc2)CCC1 (some centres undefined),inactive: -24.6%,–,–
O=C(CN1C(=O)NC2(CCOCC2)C1=O)N1CCN(c2ccc(F)cc2)CC1,inactive: 24.7%,–,–
O=C(C[C@@H]1CCNC[C@@H]1Cc1cc(CSc2ccccc2)on1)NCc1ccc(F)cc1,–,"inconclusive: 12.6 µM [inhibitor, single point]",–
O=C(Cn1cccc1-c1nc(-c2ccccc2)no1)N1CCc2ccccc21,–,"inconclusive: 3.98 µM [inhibitor, single point]",–
O=C(OCc1ccco1)c1ccc2c(c1)N(Cc1ccc([N+](=O)[O-])cc1)C(=O)c1ccccc1S2,–,"inconclusive: 8.91 µM [inhibitor, partial curve, poor fit]",–
CCn1c(=O)c2cc(C(=O)N3CCN(c4cccc(Cl)c4)CC3)sc2c2ccccc21,–,"inconclusive: 20 µM [inhibitor, single point]",–
CS(=O)(=O)N1CCCN(C(=O)c2cccs2)CCNC(=O)CC1c1ccccc1 (centres undefined),inactive: 14.9%,–,–
CC1CCN(S(=O)(=O)c2ccc3c(c2)N(CC(=O)NCCCN2CCCCC2C)C(=O)CS3)CC1 (centres undefined),–,"inconclusive: 17.8 µM [inhibitor, single point]",–
COc1ccccc1CC(=O)NC1CCN(c2cc(-c3ccccc3)[nH]n2)C1 (centres undefined),–,"inconclusive: 6.31 µM [inhibitor, partial curve, poor fit]",–
COc1cccc(N2CCN(C(=O)c3cccc(NC(=O)c4nsc5ccccc45)c3)CC2)c1,–,"inconclusive: 11.2 µM [inhibitor, single point]",–
CN(C)C[C@@H]1CN(Cc2cccnc2)C[C@H]1NC(=O)Cc1cccc(F)c1,–,"inconclusive: 10 µM [inhibitor, single point]",–
N#Cc1ccc(C(=O)N2CCOCCNC(=O)[C@@H]3CCC[C@@H]32)cc1,inactive: 22.7%,–,–
CC(=O)NC1(C)CCN(Cc2cccc(-c3ccccc3)c2)C1 (centres undefined),–,"inconclusive: 5.62 µM [inhibitor, single point]",–
COc1cccc(CN2CCC(C(=O)Nc3ccccc3-c3cccc(OC)c3)CC2)c1,–,"inconclusive: 1.78 µM [inhibitor, full curve]",–
Cc1n[nH]c(C)c1Cc1ccc(C(=O)N2CCC(CCOc3ccc(F)cc3)C2)o1 (centres undefined),–,"inconclusive: 0.178 µM [inhibitor, full curve, poor fit]",–
